Among all 370,000 compounds or so, about 150 (0.041%) were called active. Inconclusive means that the source gave no clear call. Such entries were picked first, then a sample of the others. Calls come from the whole dose curve; as a rule, active = well fitted inhibition curve with a large enough effect; inconclusive = small, poorly fitted or top-dose-only effect; inactive = flat fitted curve, though single readings scatter. Potencies of inconclusive entries are left out as doubtful fits.
Molecular target: Beta-lactamase (Escherichia coli (strain K12)) (UniProt P00811)
Experiment: qHTS Inhibitors of AmpC Beta-Lactamase (assay with detergent); note: nearly all actives have a fitted effect of over 25% in size;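 for activity change, negative = inhibition: 0% = no-compound wells and -100% = no-enzyme wells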
Settings: AmpC hydrolysis of nitrocefin, absorbance 480 nm, 0.01% Triton; activity change, negative = inhibition: at 114 µM (top of the series)
Summary of the method: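 AmpC (5.3 nM in the dispensed reagent) in 20 mM phosphate pH 7.0 with 0.01% (detergent screen) or 0.0001% Triton X-100 was preincubated with compounds for 15 min at room temperature. Nitrocefin was then added from an 800 uM solution, and hydrolysis was followed at 480 nm.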
Potency is the fitted concentration of half-maximal effect; tags give direction and shape of the fitted curve.

UniProt P00811, sequence (P00811 whole entry, looked up): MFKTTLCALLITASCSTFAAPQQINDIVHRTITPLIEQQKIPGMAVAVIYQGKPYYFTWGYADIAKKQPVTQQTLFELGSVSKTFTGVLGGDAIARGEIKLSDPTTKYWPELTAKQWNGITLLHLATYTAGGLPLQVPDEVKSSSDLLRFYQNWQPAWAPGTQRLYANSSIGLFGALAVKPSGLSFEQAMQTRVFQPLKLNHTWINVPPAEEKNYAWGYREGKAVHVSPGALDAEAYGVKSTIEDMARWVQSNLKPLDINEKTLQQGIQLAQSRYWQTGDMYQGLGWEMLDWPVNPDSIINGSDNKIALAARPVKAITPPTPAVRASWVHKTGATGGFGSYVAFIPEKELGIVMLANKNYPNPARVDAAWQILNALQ

Row | SMILES | activity change, negative = inhibition | Potency
1 | Cc1ccc(C(=O)NC(=O)OCCn2c(C)cnc2[N+](=O)[O-])cc1 | inactive: 1.46% | 
2 | Cc1[nH]n(-c2ccccc2)c(=O)c1C=Nc1ccc(S(=O)(=O)Nc2nccs2)cc1 |  | inconclusive [inhibitor, single point]
3 | Cc1cc(C(=O)CSc2nnnn2C)c(C)n1Cc1ccco1 | inactive: -2.42% | 
4 | O=C(Nc1cccc(Cl)c1)Nc1ccon1 |  | inconclusive [inhibitor, full curve, poor fit]
5 | Cc1c(C(=O)O)cccc1-c1ccc(/C=N/Nc2ccc(Br)cc2)o1 |  | inconclusive [inhibitor, full curve]
6 | CCOC(=O)Cn1c(-c2cccnc2Cl)nc2cc(C)c(C)cc21 |  | inconclusive [inhibitor, full curve, poor fit]
7 | COc1ccccc1N(CC(=O)NCc1ccccc1)C(=O)CCC(=O)Nc1ccccn1 |  | inconclusive [inhibitor, single point]
8 | O=C(O)C1CCN(S(=O)(=O)c2cccc3cccnc23)CC1 |  | inconclusive [inhibitor, full curve, poor fit]
9 | CCOC(=O)c1ccc(N2N=C(C)/C(=C/C=C/c3ccco3)C2=O)cc1 | inactive: 0.272% | 
10 | O=C(OCc1ccc(Br)cc1F)c1cc2ccccc2oc1=O | inactive: -0.711% | 
11 | Cn1nc(-c2ccc(C(=O)NCC3CCCO3)cc2)c2ccccc2c1=O (stereo not drawn) |  | inconclusive [inhibitor, full curve]
12 | O=C(NCc1ccco1)/C(=C/c1ccccc1F)NC(=O)c1ccccc1 |  | inconclusive [inhibitor, partial curve, poor fit]
13 | CN(C)CCn1c2c(c(SCC(=O)Nc3cccc(C(F)(F)F)c3)nc1=O)CCCC2 |  | inconclusive [inhibitor, full curve, poor fit]
14 | Cn1cc(Br)c(NC(=O)/C=C/C(=O)O)n1 | inactive: -13.1% | 
15 | Cc1cccc(Cn2cc(SCC(=O)Nc3nccs3)c3ccccc32)c1 |  | inconclusive [inhibitor, full curve]
16 | CCCOc1ccc(NC(=O)C2CC(=O)N/C(=N/N=C(\C)CCc3ccc4c(c3)OCO4)S2)cc1 (stereo not drawn) |  | inconclusive [inhibitor, partial curve]
17 | CCCn1c(N)c(C(=O)CN(C)CC(=O)Nc2ccc(C)cc2)c(=O)[nH]c1=O |  | inconclusive [inhibitor, full curve, poor fit]
18 | CC(C)CC(c1nnnn1Cc1ccccc1)N1CCC(C(N)=O)CC1 (stereo not drawn) |  | inconclusive [inhibitor, full curve, poor fit]

From PubChem BioAssay AID485294 (National Center for Advancing Translational Sciences (NCATS), 2010)
